Source: PMC2837407
Results are given in words; binding and its absence hold for the method and conditions named. Some results given as binding are weak or reduced against the parent protein; the word gives no strength. For some assays here: Tags and fused reporters may be left off the sequences shown.

Assays:
Test in all cases: two-hybrid; bacterial two-hybrid in E. coli MM337 (pUT18C, pKT25, pUT18); MacConkey base and M9 plates with 0.5% maltose, two days at 30°C
[1] = molecular target: T1, truncated version of YfiN missing its transmembrane region (residues 1-182) (Pseudomonas aeruginosa PA01) (UniProt Q9I4L5)
T1 sequence: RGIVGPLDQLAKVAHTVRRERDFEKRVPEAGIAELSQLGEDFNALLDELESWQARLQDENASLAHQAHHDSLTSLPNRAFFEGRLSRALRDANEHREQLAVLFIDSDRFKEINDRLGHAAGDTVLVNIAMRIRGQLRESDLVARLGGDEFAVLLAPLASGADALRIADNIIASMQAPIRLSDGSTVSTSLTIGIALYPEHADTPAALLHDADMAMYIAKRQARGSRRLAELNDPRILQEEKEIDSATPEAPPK

[2] = molecular target: truncated variant of YfiR missing the predicted signal peptide (residues 1-34) (Pseudomonas aeruginosa PA01) (UniProt Q9I4L4)
[3] = molecular target: T2, truncated version of YfiN missing its transmembrane region (residues 1-182) (Pseudomonas aeruginosa PA01), Q9I4L5; details: remark: other sources report otherwise
T2 chain: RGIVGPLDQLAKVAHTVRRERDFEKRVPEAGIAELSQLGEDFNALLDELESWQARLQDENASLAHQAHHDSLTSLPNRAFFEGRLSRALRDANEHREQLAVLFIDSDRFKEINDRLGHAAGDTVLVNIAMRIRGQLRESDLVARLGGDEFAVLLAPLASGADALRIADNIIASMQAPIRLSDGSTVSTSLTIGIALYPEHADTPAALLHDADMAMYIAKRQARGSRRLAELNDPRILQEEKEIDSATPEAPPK

[4] = molecular target: isolated periplasmic domain of YfiN (Pseudomonas aeruginosa PA01) (UniProt Q9I4L5)

Molecule: isolated HAMP domain of YfiN (from UniProt Q9I4L5 183-236) (domain or fragment)
- binding [1]: binds

Molecule: isolated GGDEF domain of YfiN (from UniProt Q9I4L5 279-415) (domain or fragment)
- binding [1]: no binding

B1: truncated variant of YfiR missing the predicted signal peptide (residues 1-34) (domain or fragment, UniProt Q9I4L4 35-190)
chain: DDARTSIEQRSNAVSQVLLGIFSYVRWPKEPAVLQLCVVGPTEYADGLLRGMVQANGRRVHAERRAVDNPDLGTLCNVIYLGVVDERERQQVFRSLAGHPVLSISERGTECSVGSMFCLNVGGPRITFEANLDSIARSGVRVHPSVLKLARRQATP
- binding [2]: binds

B2: truncated version of YfiN missing its transmembrane region (residues 1-182), Q9I4L5 183-435 (domain or fragment)
chain: RGIVGPLDQLAKVAHTVRRERDFEKRVPEAGIAELSQLGEDFNALLDELESWQARLQDENASLAHQAHHDSLTSLPNRAFFEGRLSRALRDANEHREQLAVLFIDSDRFKEINDRLGHAAGDTVLVNIAMRIRGQLRESDLVARLGGDEFAVLLAPLASGADALRIADNIIASMQAPIRLSDGSTVSTSLTIGIALYPEHADTPAALLHDADMAMYIAKRQARGSRRLAELNDPRILQEEKEIDSATPEAPPK
- binding [3]: binds

B3: YfiR (bacterial two-hybrid fusion, variant not stated) (protein, UniProt Q9I4L4 1-190)
chain: MPSLPTLQPLDLYRRTLACLVLAVSCLGGGGLWADDARTSIEQRSNAVSQVLLGIFSYVRWPKEPAVLQLCVVGPTEYADGLLRGMVQANGRRVHAERRAVDNPDLGTLCNVIYLGVVDERERQQVFRSLAGHPVLSISERGTECSVGSMFCLNVGGPRITFEANLDSIARSGVRVHPSVLKLARRQATP
- binding [4]: no binding
